Paper PMC4336329 (PLoS ONE, 2015)
The whole screen tested about 310,000 compounds, of which about 14,000 (4.5%) showed an effect of 50% or more. Effects have a minus sign here. The list shows a part of the results.

What follows are compounds tested against human ether-à-go-go-related gene (hERG) potassium channel (human, UniProt Q12809) (assay: primary screen, population patch clamp on CHO cells stably expressing hERG).
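Further: peak tail current of the secondary pulse compared with the same well before compound.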

Chain of human ether-à-go-go-related gene (hERG) potassium channel (Q12809 whole entry, looked up): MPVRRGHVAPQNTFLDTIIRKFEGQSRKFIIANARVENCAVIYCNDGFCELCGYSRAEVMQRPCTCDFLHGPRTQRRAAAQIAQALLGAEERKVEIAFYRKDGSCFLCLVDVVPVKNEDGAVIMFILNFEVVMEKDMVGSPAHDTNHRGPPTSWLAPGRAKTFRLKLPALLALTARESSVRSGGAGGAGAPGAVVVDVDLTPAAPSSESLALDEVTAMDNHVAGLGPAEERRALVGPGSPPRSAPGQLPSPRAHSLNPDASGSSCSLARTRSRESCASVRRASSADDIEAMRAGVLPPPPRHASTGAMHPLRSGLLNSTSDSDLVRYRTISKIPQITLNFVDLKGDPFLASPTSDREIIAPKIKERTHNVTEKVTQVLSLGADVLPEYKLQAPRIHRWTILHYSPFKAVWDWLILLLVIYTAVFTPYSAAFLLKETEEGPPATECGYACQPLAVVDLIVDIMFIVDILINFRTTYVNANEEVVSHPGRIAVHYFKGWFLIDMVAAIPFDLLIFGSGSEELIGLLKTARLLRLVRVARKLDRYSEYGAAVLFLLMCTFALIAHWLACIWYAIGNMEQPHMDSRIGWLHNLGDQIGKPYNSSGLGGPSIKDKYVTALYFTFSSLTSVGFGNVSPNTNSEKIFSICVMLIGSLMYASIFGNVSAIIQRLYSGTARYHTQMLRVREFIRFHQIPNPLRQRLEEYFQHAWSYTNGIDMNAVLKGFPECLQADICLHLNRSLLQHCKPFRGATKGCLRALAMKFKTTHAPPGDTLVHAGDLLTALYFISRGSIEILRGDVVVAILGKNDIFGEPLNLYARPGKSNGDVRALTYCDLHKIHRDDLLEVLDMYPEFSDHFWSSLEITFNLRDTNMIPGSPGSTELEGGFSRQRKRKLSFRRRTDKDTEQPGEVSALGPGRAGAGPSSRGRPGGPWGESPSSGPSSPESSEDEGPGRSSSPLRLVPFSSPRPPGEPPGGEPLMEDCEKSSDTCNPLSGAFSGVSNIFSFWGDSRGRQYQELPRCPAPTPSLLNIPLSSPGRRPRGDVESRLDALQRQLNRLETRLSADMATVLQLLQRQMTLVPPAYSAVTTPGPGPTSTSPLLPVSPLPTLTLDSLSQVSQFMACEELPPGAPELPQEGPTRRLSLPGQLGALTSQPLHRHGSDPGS

Row | Compound | hERG current change (%, negative = inhibition) at 10uM [%]
1 | O=S(=O)(c1ccccc1)n1cc(-c2ccccn2)c(N2CCOCC2)n1 | -6.36
2 | Cc1cc(C)n(-c2ncc3c(n2)N(C)CCOC3=O)n1 | 12.8
3 | CCC(=O)c1c(NCCc2ccccc2)cc(C)oc1=O | 26.9
4 | Cc1cccc(C(=O)N/N=C/c2ccncc2)c1 | 11.6
5 | CCC(OC(=O)c1ccco1)C(=O)NCc1ccc(C)cc1 (centres unmarked) | -9.07
6 | CCCOc1ccc(-c2cnc(SCC(N)=O)nc2N)cc1 | -0.0819
7 | Cc1ccc(N/C=C2\C(=O)C3(C)CCC2C3(C)C)cc1C (centres unmarked) | 12.7
8 | NC(=O)c1ccccc1NC(=O)Nc1ccc(F)c(Cl)c1 | 9.38
9 | Cc1ccc(S(=O)(=O)N2CCN(CC(=O)Nc3ccccc3Cl)CC2)cc1 | -0.79
10 | Cc1ccc2c(c1)sc1nc(=O)n(-c3ccc(Cl)c(Cl)c3)c(=O)n12 | 5.1
11 | CO/N=C/NC(=O)c1cn(-c2ccc(F)cc2)c(=O)c2ccccc12 | -10.1
12 | Cc1nc([N+](=O)[O-])cn1C(C)C | 2.46
13 | CCOc1ccc(NC(=O)c2cc(=O)[nH]c3ccccc23)cc1 | 9.97
14 | O=c1cc(-c2ccccc2)c2cc3c(cc2[nH]1)OCCO3 | 16.2
15 | Cc1noc(C)c1COC(=O)c1ccc2c(c1)OCO2 | 8.72
16 | Cc1cccc2nc(CSc3ccccc3N)cn12 | 3.9
17 | O=C(NCc1ccccc1OC(F)(F)F)C1CCC(=O)N(Cc2cccc(F)c2)C1 (centres unmarked) | -12.4
18 | Cn1c(O)c(C=NCc2ccco2)c(=O)n(C)c1=O | -10.8
19 | Cc1ccc(N2C=Nc3ccc(C)c4nc(C)cc2c34)cc1 | -42.6
20 | Cc1cc(C)n(-c2ccc(NC(=O)C3CCCCN3C(=O)c3ccc(C)s3)cc2)n1 (centres unmarked) | -16.7
21 | COc1ccc(C(=O)Nc2ccccc2N2CCCC2)cc1 | -44.1
22 | COc1c(OC(C)=O)c(=O)n2c3ccccc3c3ccnc1c32 | -2.05
23 | CCNc1nc(NCC)nc(OCCOC(=O)c2ccccc2)n1 | -33.1

Row | Compound | hERG current change (%, negative = inhibition) at 10uM [%]
24 | O=C(Nc1ccc(Cl)cc1)[C@@H]1[C@@H]2C(=O)N(c3ccc4ccccc4c3)C(=O)[C@@H]2[C@H]2C=CC=NN21 | -3.38
25 | O=c1c(-c2ccccc2)nc(-c2ccccc2)cn1O | 2.67
26 | CCc1ccc(OCC(=O)NC(=S)Nc2cccc(CO)c2)c(Br)c1 | 13.9
27 | CC(C)NC(=O)CN1CCN(c2ncccn2)CC1.O=C(O)C(=O)O | 5.84
28 | CC12CC3(C)CC(C)(C1)CC(NC(=O)N1CCCC1)(C2)C3 | 1.92
29 | CC1CCCCC1NC(=O)c1cc2c(=O)n3ccccc3nc2n1C (centres unmarked) | 4.32
30 | O=C(CCCN1C(=O)c2cccc3cccc(c23)C1=O)NCCN1CCOCC1 | 7.31
31 | Cc1cc(N2CCN(C)CC2)n2cc(-c3ccc(F)cc3)nc2n1 | -87.6
32 | CCOc1ccc(C(=O)NCCCn2ccnc2)cc1 | -22.9
33 | OCCC1CN(C/C=C/c2ccco2)CCN1Cc1ccccc1 (centres unmarked) | -8.57
34 | COc1ccc(-c2cc(C(=O)NC(Cc3cc4ccccc4[nH]3)C(=O)O)c(C)o2)cc1OC (centres unmarked) | 18.8
35 | CCOC(=O)CNc1nc(C(C)(C)C)nc2c1nnn2Cc1ccccc1 | 10
36 | CCCc1nc(SC)[nH]c(=O)c1C | 7.16
37 | Nc1ncn(CC(=O)c2ccccc2)n1 | 8.12
38 | CCc1ccc(C(=O)NC(=S)Nc2ccc(N3CCOCC3)cc2)cc1 | 17.8
39 | O=C(CNC(=O)c1ccc(Br)cc1)NCC(=O)OCC(=O)c1ccc([N+](=O)[O-])cc1 | 13.4
40 | O=C1C2CCCCN2C(=O)N1CCCN1CCN(c2ccc(F)cc2)CC1 (centres unmarked) | -34.8
41 | CCOC(=O)c1oc2ccccc2c1COC(=O)CNC(=O)c1cc(OC)c(OC)c(OC)c1 | -22.9
42 | Cc1cc(C)nc(-n2nc(C)c(Sc3ccc(F)cc3)c2N)n1 | -61.7
43 | Cc1c(NC(=O)c2ccc(N(C)S(C)(=O)=O)cc2)c(=O)n(-c2ccccc2)n1C | 8.76
44 | O=C(NN1C(=O)c2ccccc2NC1c1ccccn1)c1ccccc1 (centres unmarked) | 12.2
45 | COc1ccc(CCC(=O)OCC(=O)NCc2ccc3c(c2)OCO3)cc1 | -22
46 | CCN(CC)S(=O)(=O)c1cccc(C(=O)N[C@H](C(=O)OCC(=O)NC(=O)NC)C(C)C)c1 | -5.08

Row | Compound | hERG current change (%, negative = inhibition) at 10uM [%]
47 | CCc1ccc(OCC(=O)N/N=C(\C)c2ccc(-n3ccnc3)cc2)cc1 | -71.8
48 | COc1ccc(C2CC(c3ccc(OC)c(OC)c3)=NN2S(C)(=O)=O)cc1 (centres unmarked) | 2.96
49 | CC(c1nccs1)N(C)C(=O)CCc1nnc(-c2ccc(-c3ccccc3)cc2)o1 (centres unmarked) | -29.1
50 | COc1ccc(-c2nnc(SCC(=O)Oc3ccc(C)cc3)o2)cc1 | 13.7
51 | Cc1ccc2nc(NC(=S)NC(=O)c3ccc(OC(C)C)cc3)sc2c1 | 5.92
52 | CCCNC(=O)c1c(N)n(-c2cc(OC)cc(OC)c2)c2nc3ccccc3nc12 | 0.629
53 | O=C(CCl)N(c1ccc(Cl)cc1)c1c[nH]c2ccccc12 | 1.11
54 | Fc1ccc(C2c3cccn3CCN2C(=S)Nc2cccc(Br)c2)cc1 (centres unmarked) | 19.4
55 | S=C(NNc1nc(Nc2ccccc2)nc(N2CCCCC2)n1)NC1CCCCC1 | 20.5
56 | Cc1nonc1NC(=O)CSc1nnc(-c2ccoc2C)n1CC(C)C | -17.1
57 | COc1ccc(CCNC(=O)CSc2nc(N)c(C#N)c(-c3cccs3)c2C#N)cc1OC | 10.9
58 | O=C(c1cccnc1)N1N=C(c2cccs2)CC1c1ccc(F)cc1 (centres unmarked) | -34.7
59 | Cc1cccc(/C=N/Nc2ccc3ccccc3n2)c1 | 6.07
60 | COC(=O)c1cccc(NC(=O)Nc2ccc(Cl)cc2Cl)c1 | 10.8
61 | COc1ccc(N(CC(=O)N2CCN(c3ccccc3F)CC2)S(=O)(=O)c2c(C)n[nH]c2C)cc1 | -20.6
62 | Cc1ccc(S(=O)(=O)N2CCOCC2)cc1NC(=O)COC(=O)Cc1cccs1 | -62.8
63 | Cc1cc([N+](=O)[O-])nn1CC(=O)NCc1cccs1 | 0.204
64 | Nc1nonc1-n1nnc(C(=O)N/N=C/c2ccco2)c1-c1ccccc1 | 10.9
65 | Cc1ccc(NC(=O)C(=O)NC2CCCCC2)cc1 | 18.9
66 | Cc1ccc(SCc2cc(=O)[nH]c(SCC(=O)Nc3cc(Cl)ccc3Cl)n2)cc1 | 24.5
67 | CC/C(C)=N\NC(=O)CNC(=O)c1ccc(Cl)cc1Cl | 4.95
68 | CCCCNC(=S)N(CCCO)Cc1cc2cc3c(cc2[nH]c1=O)OCCO3 | 0.486
69 | CCC(=O)Nc1cccc(C(=O)/C=C/c2ccccc2)c1 | -37

Row | Compound | hERG current change (%, negative = inhibition) at 10uM [%]
70 | COC(=O)N1CCN(c2ccc(C)c(C)c2)CC1 | 17.6
71 | COc1ccccc1-n1c(CNC(=O)c2ccccc2)nnc1SCC(=O)Nc1nnc(C)s1 | 16.5
72 | CC1=NN(C(=O)Cc2ccc([N+](=O)[O-])cc2)C(O)(c2ccccc2)C1 (centres unmarked) | -20.1
73 | CN(C)CCNc1c2c(nc3nnnn13)CCCC2 | 1.62
74 | CCOc1ccc(NC(=O)CN(C)C(=O)c2cccnc2Sc2ccc(C)c(C)c2)cc1OCC | 0.0885
75 | CCN1C(=O)[C@H]2[C@@H](c3ccc(C)cc3)N3C(=O)N(c4ccc(OC)cc4)C(=O)[C@@]3(CC)[C@H]2C1=O | 15.7
76 | O=C1CCC(=O)N1CC(=O)N(c1ccccc1)c1ccccc1 | 5.36
77 | CCCCCOC(=O)C(C)Sc1n[nH]c(=O)[nH]c1=O (centres unmarked) | 9.11
78 | COc1ccc(NC(=O)CSc2nccn2-c2ccccc2)c(OC)c1 | -8.53
79 | CCN1C(=O)C(O)(CC(=O)/C=C/C=C/c2ccccc2)c2ccccc21 (centres unmarked) | -0.629
80 | CCCCSc1nnc(-c2ccc(C)cc2)o1 | 3.13
81 | Cc1nn(CC(=O)NC(C)c2ccccc2)c(=O)c2ccccc12 (centres unmarked) | 7.18
82 | CCN(CC)C(=O)C(=O)c1cccn1-c1cccc(-n2cccc2C(=O)C(=O)N(CC)CC)c1C#N | 12.3
83 | O=C(COc1cccnc1[N+](=O)[O-])Nc1cccc(S(=O)(=O)N2CCCCC2)c1 | 1.77
84 | O=C(Nc1cccc(C(F)(F)F)c1)Nc1ccc2[nH]c(=O)[nH]c2c1 | 15.7
85 | CCn1c2ccccc2c2cc(NC(=O)CSc3nccc(=O)[nH]3)ccc21 | 8.6
86 | CCOc1cccc(C2C(C#N)=C(N)Oc3cc(C)n(Cc4ccccn4)c(=O)c32)c1OCC (centres unmarked) | 13.3
87 | CCSc1nc2ccccc2n1CC(=O)OC | -1.83
88 | CN1C(=O)/C(=C/c2cccn2-c2ccc3ccccc3c2)C(=O)NC1=S | 12.2
89 | CC(=O)c1ccc(Nc2cc(C)nc3nc(C)nn23)cc1 | -49.9
